Experiment [1] deals with Human immunodeficiency virus 1. Kind of experiment: Antiviral activity against HIV1 infected in HEK293T cells at 1 mM after 1 hr by luciferase reporter gene assay relative to control. The class given is functional. An outline of the steps:
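Infected 200,000 HEK293T cells with 8 µg/ml polybrene for 48 h alongside a no-virus mock. Lysates assayed for luciferase with ATP and D-luciferin. Two separate experiments, mean ± SD.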
A general note: A reporter such as luciferase makes a cellular process visible.

For experiment [2], the system named is Human immunodeficiency virus 1. Put plainly: Antiviral activity against GFP-transducing HIV1 infected in HEK293T cells at 1 mM after 1 hr by GFP fluorescence assay. The class given is functional, organism-based. An outline of the steps:
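GFP-reporter HIV-1 (psPAX2 + VSV-G + GFP lentivector, made by HEK293T co-transfection) pelleted and resuspended in PBS. Used to infect 200,000 HEK293T cells in DMEM with 8 µg/ml polybrene, 48 h at 37°C. Cells fixed in 4% paraformaldehyde; GFP-positive cells imaged by fluorescence microscopy.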

Experiment [3] has as its target Soluble guanylate cyclase (Homo sapiens, UniProt O75343+P33402+Q02108+Q02153). Kind of experiment: Inhibition of soluble guanylate cyclase (unknown origin). The class given is protein-complex assay.

Active and inactive are the calls of the source. The rule behind the calls is not given here.

This note sets out measurements from ChEMBL document CHEMBL4428129, “Analysis of quinolinequinone reactivity, cytotoxicity, and anti-HIV-1 properties” (Bioorg Med Chem, 2016).

For orientation: IC50 means the concentration that gives 50% inhibition.

With `c1ccc(SSc2ccccn2)nc1`, the “fold change (FC)” value in experiment [1] was greater than 4. Also, the outcome in experiment [2] was Active.
Take `O=C1C(Nc2ccccc2)=CC(=O)c2ncccc21`: the concentration for half-maximal inhibition (IC50) in experiment [3] fell in the range of 1000 to 2000 nM.
